Paper PMC12040169 (PLOS Biology, 2025)
The other results are listed elsewhere or left out.

tested on: T1, C. trachomatis L2/434/Bu expressing GFP (CTL2-GFP); parameters: species or system HeLa; C. trachomatis total inclusion area by high-content imaging, normalised to DMSO; conditions: total inclusion area; 28.5 h, 10 µM; inhibitor
T1 construct: L2/434/Bu GFP intracellular growth in HeLa cells
Procedure, shortened: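 Post-fluorescence-read fixation, DNA staining with Hoechst and high-content imaging; GFP inclusion area and number per well, and nuclei counts, used as proxies for bacterial growth and host viability.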

Compound | % of control remaining
CC(C)CCN[C@H]1CO[C@H]2[C@@H]1OC[C@@H]2n1nnnc1-c1ccccc1 [CBK289537] | 97.0399
CC1(C)CC(=O)C2=C(C1)c1c(ccc3ccccc13)NC2c1ccc(-c2ccc(O)c(C(=O)O)c2)o1 (centres unmarked) [CBK261823] | 80.9737
Cc1c(C(=O)Nc2cccc(C(F)(F)F)c2)sc2nc(-c3ccccc3)cn12 [CBK294408] | 122.731
COc1ccccc1Cc1cccc(C2CCCN2C(=O)CCc2ccccc2)n1 (centres unmarked) [CBK286229] | 63.096
O=c1[nH]c2ncc(-c3ccco3)nc2n1CCc1cccnc1 [CBK064494] | 100.563
O=c1c2c3c(sc2ncn1CC(O)COc1ccc(F)cc1)CCC3 (centres unmarked) [CBK295191] | 67.2484
C[C@@H](Cn1nnc2ccccc21)NC(=O)c1cccs1 [CBK284322] | 62.857
CCOC(=O)c1cccc(NS(=O)(=O)c2ccc(-c3ccccc3)cc2)c1 [CBK034341] | 85.866
CC(=O)Nc1ccc(N(CC(O)Cn2c3ccccc3c3ccccc32)S(C)(=O)=O)cc1 (centres unmarked) [CBK264352] | 117.74
O=C(O)C1CC=CCC1C(=O)Nc1ccc(CN2CCOCC2)cc1 (centres unmarked) [CBK299786] | 88.7742
O=S(=O)(Nc1nnc(C(F)(F)F)s1)c1ccc(-c2cc(C(F)(F)F)on2)s1 [CBK062019] | 81.6661
Cc1cccc(Cn2c(=O)c3cnc(-c4ccncc4)nc3n(C)c2=O)c1 [CBK288593] | 109.76
CNC(=O)CSc1nnc(COc2cccc3ccccc23)n1-c1ccccc1 [CBK266043] | 137.39
COCC(=O)N[C@H]1C[C@H]2C(=O)Nc3ccc(/C=C/c4ccccc4)cc3C(=O)N2C1 [CBK289366] | 2.445
O=C(c1cccs1)N1CCC(c2nnc3n2CCCCC3)CC1 [CBK284626] | 50.4005
Nc1nccn(CCOc2cc(F)c(F)cc2F)c1=O [CBK138204T] | 100.508
COC(=O)c1ccccc1NC(=O)CC1Nc2ccccc2NC1=O (centres unmarked) [CBK269276A] | 91.1197
CCn1cc(CC(=O)NCCn2ccc(C)n2)c2ccccc21 [CBK282670] | 118.396
COc1ccc(-c2nnc3ccc(SC(C)C)nn23)cc1OC [CBK287526] | 95.7841
Cc1nonc1NC(=O)CN1CCCCC1 [CBK261839] | 103.981
CCn1c(SCC(=O)N2CCC(C(N)=O)(N3CCCCC3)CC2)nnc1-c1ccccc1 [CBK266135] | 126.593
O=C1CCN(Cc2ccccc2)CCN1Cc1cccc(F)c1 [CBK284466] | 100.067
CCC(=O)NC(NC(=S)Nc1cccc2cccnc12)C(Cl)(Cl)Cl (centres unmarked) [CBK261027] | 107.775
O=C(c1ccc2c(c1)C(=O)N(c1ccncc1)C2=O)c1ccc2c(c1)C(=O)N(c1ccncc1)C2=O [CBK261194] | 102.666
Cc1ccc(S(=O)(=O)Nc2ccc(C(C)C)cc2)cc1C(=O)O [CBK297766] | 106.171

Compound | % of control remaining
CC(CCN(CCN)C(=O)N1CCC(CNS(C)(=O)=O)(c2ccccc2)CC1)c1ccccc1 (centres unmarked) [CBK002335C] | 66.9681
Cc1ccc(C(=O)NC2CCCC2)cc1[N+](=O)[O-] [CBK001993] | 43.1495
CC(Sc1ccc(Br)c2cccc(C(=O)O)c12)C(=O)O (centres unmarked) [CBK266226] | 96.2315
CC(=O)Nc1ccc(OC(=O)c2ccc(Br)o2)cc1 [CBK293917] | 84.1983
CCN(Cc1cnn(C)c1)S(=O)(=O)c1ccc2c(c1)CCCC(=O)N2 [CBK304782] | 65.3568
O=[N+]([O-])c1cccc(Cn2c(CO)nc3ccccc32)c1 [CBK297515] | 103.074
O=C1CCC(=O)N1CCOc1nccnc1-c1ccc2c(c1)OCO2 [CBK106698] | 109.366
COc1ccccc1-c1ccc(Nc2ccccc2)nc1 [CBK036909] | 104.391
Cc1cccc(CN2CC[C@H]3[C@@H](C2)[C@H](c2ccsc2)CN3C(=O)c2ccc(F)cc2)c1 [CBK285639] | 102.728
CC(NC(=O)c1ncoc1-c1ccc(F)cc1)c1cccnc1 (centres unmarked) [CBK282358] | 79.2433
Cc1cc(-c2cn3cc(C(=O)N(C)CC(C)O)nc3c(=O)n2C)c(C)o1 (centres unmarked) [CBK307154] | 62.4023
CCOC(=O)N1CCCN(C(=O)OCC)CC1 [CBK034324] | 10.8773
N#Cc1cccnc1N1CCC(NC(=O)c2ccc3nccn3c2)CC1 [CBK306566] | 57.7139
O=C(Cc1ccccc1F)N1CCC(c2cc3cccnc3[nH]2)CC1 [CBK285035] | 86.4922
CC(=O)NCCNC(=O)c1ccc(-c2cnc(OCC3CCN(C(=O)OC(C)(C)C)CC3)nc2)cn1 [CBK170023] | 46.332
O=C(O)/C=C/C(=O)Nc1ccccc1Br [CBK086488] | 112.55
COc1ccc(N(CCC#N)S(=O)(=O)c2cccc3nsnc23)cc1 [CBK025851] | 78.66
O=C(CN1CCCCCC1=O)NCC(CO)Cc1ccsc1 (centres unmarked) [CBK306763] | 59.6238
CN(Cc1ccc2c(c1)OCO2)C(=O)c1cnn2c(-c3ccccc3)ccnc12 [CBK298276] | 90.2776
Cc1cc(C)c(C)c(S(=O)(=O)NCc2ccc(C(=O)Nc3ccncc3)cc2)c1C [CBK267193] | 69.9074
CCOC(=O)CCCNC(=O)N1CCCC(C(=O)O)C1 (centres unmarked) [CBK161374] | 55.067
c1cnc(-c2ccc3c(c2)OCO3)c(OC2CCCCC2)n1 [CBK106706] | 106.869
O=C(c1ccccc1)N1C[C@H](c2ccsc2)[C@H]2CN(Cc3cccs3)CC[C@H]21 [CBK285623] | 92.6594
CC(C)(C)C1=CC2=NC3(CCCCC3)[C@@H]3C[C@@H](O)[C@@H](O)[C@@H]3N2O1 [CBK303235] | 67.8815
COCC(O)CN(C)C(=O)c1ccc(Oc2cccc(Br)c2)nc1 (centres unmarked) [CBK304229] | 22.9331
